Measurements as given in PubChem BioAssay AID485344 (National Center for Advancing Translational Sciences (NCATS), 2010).
Out of some 340,000 compounds screened, about 6,900 (2%) were called active. No stated cut-off is given here; in the data, active means inhibition above about 30%; inactive means below that, where a call was filed. Only a part is listed here, and it is no random draw. The source gives no active or inactive call for entries shown without one.
Further: 0% is about no effect.

The molecules below were run against D(2) dopamine receptor (Homo sapiens) (UniProt P14416) (assay: HTS Assay for Allosteric Antagonists of the Human D2 Dopamine Receptor: Primary Screen for Antagonists). Details: HEK293 TREx D2 cells, calcium flux, dopamine EC80; at 10 µM; stronger effect = higher value.
Chain of UniProt P14416 (P14416 whole entry, looked up): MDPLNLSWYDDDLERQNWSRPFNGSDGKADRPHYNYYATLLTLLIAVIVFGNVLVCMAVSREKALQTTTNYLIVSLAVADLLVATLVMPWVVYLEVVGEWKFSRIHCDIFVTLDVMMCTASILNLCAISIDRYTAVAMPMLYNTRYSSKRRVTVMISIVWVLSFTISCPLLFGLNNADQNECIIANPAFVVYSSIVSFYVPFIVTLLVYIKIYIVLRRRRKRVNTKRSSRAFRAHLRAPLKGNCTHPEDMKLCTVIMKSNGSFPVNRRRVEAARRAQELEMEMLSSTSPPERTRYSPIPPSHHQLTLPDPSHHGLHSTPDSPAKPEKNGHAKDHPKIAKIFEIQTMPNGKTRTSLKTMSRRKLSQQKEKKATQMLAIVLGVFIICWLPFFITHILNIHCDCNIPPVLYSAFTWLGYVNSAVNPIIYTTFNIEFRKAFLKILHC
Summary of the method: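 Antagonism is scored as inhibition of an EC80 dopamine-evoked calcium signal in a force-coupled, tetracycline-inducible HEK293 T-REx D2 line, with compound present 180 s before agonist.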
`Cc1nc2nc(SCc3ccc(F)cc3Cl)nn2c(C)c1Cc1ccccc1` gave an inhibition of 14.3%. Molecule `CCOc1ccc(-c2cn3c(n2)sc2cc(C(=O)NCCCc4ccccc4)ccc23)cc1` has an inhibition of -9.54%. With `CC(C)(C)c1ccc(C(=O)N2CC(=O)Nc3ccc(F)cc3C2c2ccc(F)cc2)cc1` (stereo not drawn) the inhibition was -17.4%. `COc1cc(C2c3c(oc4ccccc4c3=O)C(=O)N2Cc2ccccc2Cl)ccc1O` (stereo not drawn) showed an inhibition of 4.05%. With `COc1cc(CCC(=O)NCc2ccc3c(c2)CCN3C(=O)c2cccc(C)c2)cc(OC)c1OC` the inhibition was -28%. With `O=C(N/N=C/c1ccccc1OC(F)F)C1=COCCO1` the inhibition was active: 32.5%. `Cc1ccc(Nc2cc(C(=O)NC3CCCC3)c3ccccc3n2)c(C)c1` showed an inhibition of 4.86%. `COc1ccc(NC(=O)CSC2=Nc3ccccc3C3=NC(Cc4ccccc4)C(=O)N23)cc1Cl` (stereo not drawn) gave an inhibition of -15.2%. Work on `CN(Cc1ccccc1)C(=O)Cn1ncc2c3ccccc3n(Cc3cccc(Cl)c3)c2c1=O` yielded an inhibition of 4.93%. With `Cc1ccc(Cl)cc1Nc1sc(C(=O)c2ccccc2)c(N)c1S(=O)(=O)c1ccccc1` the inhibition was -2.93%. With `CCN(CC)S(=O)(=O)c1ccc2c(c1)nc(SCC(=O)NC1CC1)n2-c1ccccc1OC` the inhibition was active: 50.5%. `Cc1ccccc1Cn1c(Oc2ccccc2F)nc2c1c(=O)n(C)c(=O)n2C` gave an inhibition of 14.2%. Work on `Cc1ccc(NC(=O)Cn2c(=O)c(C(F)(F)F)nc3ccccc32)c(C)c1` yielded an inhibition of 5.28%. In the case of `CCCCN(CC)CCNC(=O)Cn1c(=O)c2cccn2c2cccnc21`, the inhibition is reported as 4.03%. In the case of `Cc1ccc(N2CCN(C(=O)C3CCC(CNS(=O)(=O)c4ccc(Br)s4)CC3)CC2C)cc1` (stereo not drawn), the inhibition is reported as 2.46%. Work on `COc1ccc2cc(CNc3ccccc3)c(=O)n(CC(=O)Nc3ccc(C)cc3C)c2c1` yielded an inhibition of -6.64%. Molecule `Cc1ccc2nc(SCc3nc(-c4ccccc4C)no3)[nH]c2c1` has an inhibition of 5.8%. With `Cc1ccc(C(=O)CCNc2ccccc2)o1` the inhibition was active: 32.5%. In the case of `Cc1ccc2c(CC(=O)Nc3c(C(=O)Nc4cccc(Cl)c4)oc4ccccc34)coc2c1C`, the inhibition is reported as -8.96%. `COc1cccc(CNC(=O)c2cc3c(=O)n(C)c4ccccc4c3n2C)c1` was tested, and the inhibition was 12.4%. Work on `COc1ccccc1CCNC(=O)CCc1c(C)c2cc3c(C)coc3cc2oc1=O` yielded an inhibition of 5.93%. Molecule `Cc1ccc(C)c(N2CCN(C(=O)c3cccn3-c3nnc(N4CCCCC4)s3)CC2)c1` has an inhibition of 5.96%. `Nc1c2c(nc3ccc(Br)cc13)N(C1CCCCC1)CC2` was tested, and the inhibition was active: 74.2%. In the case of `COCCn1c(C)cc(O)c(C(c2ccccc2OC)N2CCCCC2)c1=O` (stereo not drawn), the inhibition is reported as 6.99%. `COc1ccc(C(CC(=O)Nc2ccc(OC)c(OC)c2)N2Cc3ccccc3C2=O)cc1` (stereo not drawn) showed an inhibition of -7%. `COc1ccc(OC)c(CCNC(=O)c2ccc3[nH]c(C)c(C)c3c2)c1` gave an inhibition of 16.8%. In the case of `Cc1nn2c(C(F)(F)F)cc(-c3ccc(OC(C)C)cc3)nc2c1C#N`, the inhibition is reported as 7.97%. Work on `Cc1ccccc1OCC(=O)Nc1ccccc1C(=O)OCc1cc(=O)n2c(C)csc2n1` yielded an inhibition of 7.11%. Molecule `CCOc1ccccc1CNC(=O)c1[nH]c2ccccc2c1Sc1ccccc1` has an inhibition of -2.8%. Molecule `CCc1nc2ccc(C(=O)NCCc3ccc(OC)c(OC)c3)cc2nc1CC` has an inhibition of 2.07%. In the case of `O=C(c1ccco1)N1CCN(c2nc3ccc(Cl)cc3s2)CC1`, the inhibition is reported as -24%. `O=S(=O)(c1ccc(-c2cc(C(F)(F)F)on2)s1)N1CCN(c2cccc(Cl)c2)CC1` showed an inhibition of 3.49%. Work on `CCN1CCN(CCCNC(=O)c2cc3c(s2)-c2c(C)cccc2OC3)CC1` yielded an inhibition of 3.51%. `CCN(CC)CCCNC(=O)CCc1c(C)n(CC)c2cc(-c3ccccc3OC)nn2c1=O` gave an inhibition of -8.31%. For `Cc1ncc(COC(=O)C(C)C)c2cc(C(=O)Nc3ccccc3C(F)(F)F)c(=O)oc12`, the inhibition was 9.68%. Molecule `CCCCn1c(CNC(=O)C23CC4CC(CC(C4)C2)C3)nnc1SCC(=O)Nc1ccccc1` has an inhibition of -2.82%. `CCOc1ccc(CCNc2ncnc3onc(-c4ccc(F)cc4)c23)cc1OCC` showed an inhibition of -1.71%. Molecule `CN1c2ccc(Cl)cc2-c2nc(SCC(=O)Nc3cc(F)ccc3F)ncc2S1(=O)=O` has an inhibition of 1.88%. Work on `COC(=O)NNC(=O)C1CCC(C)CC1` (stereo not drawn) yielded an inhibition of 3.04%. `Cc1cccc(N2C(=O)CS(=O)(=O)C23C(=O)N(C)c2ccccc23)c1` (stereo not drawn) gave an inhibition of -22.4%. `NC(=Nc1ccccc1)Nc1ccccc1` was tested, and the inhibition was active: 55.8%. For `CCNC(=O)c1cnc2sc(N3CCC(C)CC3)nn2c1=O`, the inhibition was 7.32%. With `Cc1ccc2c(c1)N(C(=O)N1CCC(C(=O)NCCC3=CCCCC3)CC1)CC(C)O2` (stereo not drawn) the inhibition was -16%. With `Cc1c(C(=O)N2CCCC2)oc2c1-c1nn(CC(=O)NCc3cccc(F)c3)cc1CC2` the inhibition was -3.33%. Molecule `O=C(CCc1nc2cccnc2n1Cc1ccccc1)NCc1cccc(Cl)c1` has an inhibition of -8.82%. Work on `OCc1cnc(SCc2cccc(F)c2)n1Cc1ccc(F)cc1` yielded an inhibition of -7.12%. With `O=C(Nc1cccc(Cl)c1)c1ccc2nc(Cc3ccccc3)oc2c1` the inhibition was -23.9%. For `COc1cc(OC)c(NC(=O)C2=C(C)C(=O)OC23CCCCC3)cc1Cl`, the inhibition was -7.23%. With `COc1ccccc1CNC(=O)c1cc(Sc2cccc(Cl)c2)nc2ccccc12` the inhibition was 16.7%. With `CCc1ccc(C(=O)c2cnc3ccc(C)cc3c2S(=O)(=O)c2ccc(OC)cc2)cc1` the inhibition was -13.6%. `CCCCc1ccc(C(=O)Nc2ccc3nc(N(CC)CC)cc(C)c3c2)cc1` showed an inhibition of -4.92%. `COc1ccc2cc(CNc3ccc(C)cc3)c(=O)n(CC(=O)Nc3ccc(OC)c(Cl)c3)c2c1` gave an inhibition of 9.07%. For `O=C(CCCn1c(=O)c2sccc2n(Cc2ccc(F)cc2Cl)c1=O)NCc1ccc2c(c1)OCO2`, the inhibition was 22.3%. For `COC(=O)c1ccccc1NC(=O)c1ccc2c(c1)CCN2S(=O)(=O)c1ccc(C)cc1`, the inhibition was -21.3%. `O=c1cc(-c2ccccc2)n2c(SCc3ccc([N+](=O)[O-])cc3)nnc2[nH]1` showed an inhibition of -18.5%. For `CC1=C(C(N)=O)C(c2cccc(F)c2)n2nc(SCc3ccccc3)nc2N1` (stereo not drawn), the inhibition was 3.84%. For `Cc1ccccc1CN(C)CC(=O)Nc1ccccc1Oc1ccccc1`, the inhibition was active: 42.8%. Molecule `O=C(O)Cn1nc(N2CCN(c3ccc(F)cc3)CC2)ccc1=O` has an inhibition of 11.6%. `CCCCN(C)C(=O)CN1C(=O)CCn2nc(-c3cn(C)c4ccccc34)cc21` showed an inhibition of -1.58%. Work on `COc1ccc(-c2nc(CCNC(=O)c3cccs3)cs2)cc1OC` yielded an inhibition of 12.5%. Molecule `COc1cccc(CCNC(=O)c2c(O)nc3cc(C)ccn3c2=O)c1` has an inhibition of -7.53%. Work on `COCCCNC(=O)Nc1cc(C(=O)NCc2ccc(OC)cc2)ccc1N1CCCC1` yielded an inhibition of -8.39%. For `COc1cc2cc(CNc3ccc(C)cc3)c(=O)n(CC(=O)Nc3ccc(C(C)C)cc3)c2cc1OC`, the inhibition was -11.9%. `CN(C)c1ccc(CNC(=O)CCC(=O)N2Cc3ccccc3Oc3ncccc32)cc1` showed an inhibition of 14.2%. Molecule `COc1ccccc1NC(=O)c1ccccc1NC(=O)c1ccccc1` has an inhibition of 8.52%. Work on `COc1ccc(NC(=O)CSc2nc(-c3ccc(OC)cc3)[nH]c2-c2ccc(F)cc2)cc1` yielded an inhibition of 28.1%. Molecule `Cc1ccc(CN(C(=O)COc2ccc(C(C)(C)C)cc2)C2CCS(=O)(=O)C2)o1` (stereo not drawn) has an inhibition of -1.71%. `COCCc1nn2c(=O)cc(COC(=O)c3cccs3)nc2s1` gave an inhibition of -5.46%. `CCOc1ccccc1NC(=O)CN(CCc1ccccc1)S(=O)(=O)c1ccc(C)cc1` gave an inhibition of 7.62%. Molecule `Cn1nnc2c(N3CCCCC3)ncnc21` has an inhibition of -8.37%. Molecule `CCc1cccc(C)c1NC(=O)CN1C(=O)c2c(c3ccccc3n2C)C1c1ccc(OC)cc1` (stereo not drawn) has an inhibition of -5.44%. `Clc1ccc(CNc2nc3ccccc3c3nc(-c4cccnc4)nn23)cc1` was tested, and the inhibition was -9.25%. Molecule `CCn1ccc2cc(S(=O)(=O)N3CCC(C(=O)NCCc4ccc(SC)cc4)CC3)ccc21` has an inhibition of 18%. Work on `Cc1ccc(CCNC(=O)c2c(C)oc3ncnc(N4CCOCC4)c23)cc1` yielded an inhibition of -1.67%. `COc1cccc(CNC(=O)N2CCC(CN3CCC(C)CC3)CC2)c1` showed an inhibition of 2.19%. With `Cc1ccc(NCc2cccn2-c2nnc(N3CCC(C(=O)NCCc4ccccc4)CC3)s2)cc1` the inhibition was 0.601%. `CCOc1ccc(C(=O)Nc2ccc(-c3nc4cc(C(C)C)ccc4o3)cc2)cc1Cl` gave an inhibition of -6.82%. `CCc1cccc(NC(=O)c2nc(-c3ccncc3)no2)c1` showed an inhibition of -7.83%. `COc1ccc(C2=NN(CC(=O)NCc3ccccc3Cl)C(=O)CC2)cc1` showed an inhibition of -16%. `CCCN(CCC)CCCNC(=O)Cn1cc2c(n1)-c1c(oc(C(=O)N3CCCC3)c1C)CC2` showed an inhibition of -0.459%. For `O=S1(=O)CC(O)C(NCc2ccco2)C1` (stereo not drawn), the inhibition was active: 33.9%. `COc1cccc(C(=O)c2cn(CC(=O)NCCc3ccccc3)c3nc(C)ccc3c2=O)c1` was tested, and the inhibition was 1.28%. Work on `CCOC(=O)N1CCc2c(sc3c2C(=O)NC(c2cc(OC)c(O)c(OC)c2)N3)C1` (stereo not drawn) yielded an inhibition of 1.43%. `COc1cccc(NC(=O)Cn2c(=O)n(CCc3ccccc3)c(=O)c3c4c(sc32)CN(C(C)=O)CC4)c1` was tested, and the inhibition was 0.782%. Work on `Cc1ccc(C(=O)c2oc3ccccc3c2NC(=O)COc2ccccc2Cl)cc1` yielded an inhibition of 4.75%. Molecule `Cc1cc(C)n(-c2nc3ccccc3nc2N2CCN(c3cccc(C)c3C)CC2)n1` has an inhibition of 9.87%. In the case of `CCOc1ccc(NC(=O)NCc2ccc3c(c2)CCN3C(C)=O)cc1`, the inhibition is reported as 1.88%. For `CCOC(=O)c1cc2c(=O)n3ccccc3nc2n(CC2CCCO2)c1=NC(=O)c1ccc(OC)cc1OC` (stereo not drawn), the inhibition was -9.3%. In the case of `CCOc1ccc(-n2c(CC)nc3c(cnn3-c3ccc(Cl)cc3)c2=O)cc1`, the inhibition is reported as 8.03%. `COc1ccccc1/C=C/C(=O)Nc1ccc2c(c1)OCCO2` was tested, and the inhibition was active: 34.4%. Molecule `COc1ccc(-c2nc3c4ccccc4n(CC(=O)N4CCN(c5ccc(F)cc5)CC4)c(=O)n3n2)cc1` has an inhibition of 8.92%. `Cc1ccc(NC(=O)Cn2ccsc2=N)cc1S(=O)(=O)N(C)C` was tested, and the inhibition was active: 35.5%. In the case of `Cc1oc(-c2cccc(Cl)c2)nc1CN1CCCC(C(=O)N2CCN(c3ccc(F)cc3)CC2)C1` (stereo not drawn), the inhibition is reported as -23%. `COc1c(Cl)cc(C(=O)N(Cc2ccc(C)o2)C2CCS(=O)(=O)C2)cc1Cl` (stereo not drawn) was tested, and the inhibition was 13.3%. For `Cc1cccc(Cn2c(C)c(CNC3CCCCCC3)c(C(=O)O)c2C)c1`, the inhibition was -16%. `O=C(Cn1c(=O)c2ccccc2n(CC(=O)Nc2ccc(F)cc2)c1=O)NCCc1ccccc1` was tested, and the inhibition was 1.4%. In the case of `CCCCCC(=O)Nc1ccc(NC(=O)c2cc3ccccc3o2)c(OC)c1`, the inhibition is reported as 0.639%. With `COc1cccc(CNC(=O)C2(c3cccs3)CCOCC2)c1` the inhibition was 11.9%.
